# The shares of active, inactive and inconclusive entries below differ from those in the screen. Potencies beside an inconclusive call are fits to weak or partial responses and may not hold up. Active and inactive are the calls of the source. The call rests on the fitted dose curve; in most records, active means well fitted inhibition curve with a large enough effect; inconclusive means small, poorly fitted or top-dose-only effect; inactive means no such curve, though single readings can be large or run the other way.
# Target: Retinaldehyde dehydrogenase 3 (Homo sapiens) (UniProt P47895)
# Test: qHTS for Inhibitors of the Aldehyde Dehydrogenase Family (ALDH1A3) Primary screen (AID 2061315)
# Details: ALDH inhibition qHTS; series mostly up to 56 µM
# Potency means the concentration at half of the fitted maximal effect; tags describe the fitted curve by direction and shape.
row,SMILES,Potency
1,CN(C)CCOc1cc(NS(=O)(=O)c2c(Cl)cc(C(F)(F)F)cc2Cl)ccc1Cl,inactive
2,COc1cc(C2c3cc4c(c(O)c3CC(CO)C2C(=O)O)OCO4)cc(OC)c1O (stereo not given),"inconclusive: 4.47 µM [inhibitor, partial curve, poor fit]"
3,CCn1cnc2c(NCCc3cccnc3)nc(C#N)nc21,inactive
4,COc1cc([C@H]2OC[C@]3(OC(C)=O)[C@@H](c4ccc(O[C@@H]5O[C@H](CO)[C@@H](O)[C@H](O)[C@H]5O)c(OC)c4)OC[C@H]23)ccc1O,"inconclusive: 5.62 µM [inhibitor, partial curve, poor fit]"
5,O=S(=O)(NCCNc1nc(-c2ccco2)nc2ccccc12)c1ccccc1,inactive
6,CN(C)c1cnc2c(O)ccc([S+](=O)([O-])Nc3ccccc3F)c2c1,"inconclusive: 17.8 µM [inhibitor, single point]"
7,CC(=O)C=C=C1C(C)(C)CC(O[C@@H]2O[C@H](CO)[C@@H](O)[C@H](O)[C@H]2O)CC1(C)O (stereo not given in full),inactive
8,CC(O)/C=C/C1(O)C2(C)COC1(C)CC(O)C2 (stereo not given),"inconclusive: 15.8 µM [inhibitor, partial curve, poor fit]"
9,CC(=O)OC1C(OC(=O)c2ccccc2)C2C(C)(C)CCC(OC(C)=O)C2(C)C23CCC(C)(C2)C(=O)CC13 (stereo not given),inactive
10,O=C(NC(c1ccco1)c1cc(Cl)c2cccnc2c1O)c1cccs1 (stereo not given),"inconclusive: 10 µM [inhibitor, partial curve]"
11,c1nc(NCc2ccc3c(c2)OCO3)c2cc(-c3ccc4c(c3)OCCO4)ccc2n1,inactive
12,COc1cc(/C=C/C(=O)OC(C)(C)C(OC2OC(CO)C(O)C(O)C2O)C(=O)OCc2ccc(OC3OC(CO)C(O)C(O)C3O)cc2)ccc1O (stereo not given),"inconclusive: 5.62 µM [inhibitor, partial curve]"
13,O=C(Nc1ccc(-n2cncn2)c(C(F)(F)F)c1)Nc1nnc(-c2ccncc2)s1,inactive
14,O=C(Nc1nc(-c2ccccc2)cs1)c1ccccc1-n1cnnn1,inactive
15,c1cc2c3c(cccc3c1)NC(c1ccc3c(c1)OCO3)N2,"inconclusive: 3.16 µM [inhibitor, partial curve, poor fit]"
16,O=C1CCc2cc(S(=O)(=O)Nc3ccc(F)cc3)ccc2N1,inactive
17,COC(=O)[C@H](CC1C=NC=N1)NCC12CC3CC(CC(C3)C1)C2 (stereo not given in full),"inconclusive: 28.2 µM [inhibitor, partial curve, poor fit]"
18,CC1CC=C2C1CC1(O)C(=O)CC2(C)C1(C)CO (stereo not given),"inconclusive: 25.1 µM [inhibitor, partial curve, poor fit]"
19,COc1ccc(C[C@H](C)NC[C@@H](O)c2ccc(O)c(NC=O)c2)cc1,"inconclusive: 20 µM [inhibitor, partial curve, poor fit]"
20,COc1ccccc1N1CCN(CCCCNC(=O)c2ccc(-c3cscn3)cc2)CC1,inactive

row,SMILES,Potency
1,CC(=O)O[C@@]12CO[C@@H]1C[C@H](O)[C@@]1(C)C(=O)[C@H](O)C3=C(C)[C@@H](OC(=O)[C@H](O)[C@@H](NC(=O)OC(C)(C)C)c4ccccc4)C[C@@](O)([C@@H](OC(=O)c4ccccc4)C12)C3(C)C (stereo not given in full),inactive
2,CC(C)(C)c1ccc(-c2nc3ccccc3[nH]2)cc1,active: 8.91 µM
3,COc1ccc(C2=Nn3c(nnc3-c3ccccc3C)SC2)cc1OC,inactive
4,COc1ccc(C(=O)NC(c2ccco2)c2cc(Cl)c3cccnc3c2O)cc1 (stereo not given),"inconclusive: 11.2 µM [inhibitor, partial curve, poor fit]"
5,C[C@@H]1O[C@@H](O[C@H]2[C@H](O[C@H]3[C@H](O[C@H]4CC[C@@]5(C)C(CC[C@]6(C)C5CC=C5[C@@H]7CC(C)(C)C[C@@H](O)[C@]7(C)CC[C@]56C)[C@@]4(C)CO)O[C@H](C(=O)O)[C@@H](O)[C@@H]3O)OC[C@H](O)[C@@H]2O)[C@H](O)[C@H](O)[C@H]1O (stereo not given in full),inactive
6,O=C(O)CCc1nccc2c1[nH]c1ccccc12,"inconclusive: 25.1 µM [inhibitor, partial curve]"
7,COc1cc(C(=O)OC[C@H]2O[C@@H](OC(C)(C)C(=O)O)[C@H](O)[C@@H](O)[C@@H]2O)cc(OC)c1O,"inconclusive: 8.91 µM [inhibitor, partial curve]"
8,COc1ccc(C)c2sc(NC(=O)c3ccncc3)nc12,"inconclusive: 3.98 µM [inhibitor, full curve]"
9,O=C(O)c1cccc(-c2noc(-c3cccc(F)c3)n2)c1,"inconclusive: 0.1 µM [inhibitor, full curve, poor fit]"
10,O=C(OC[C@H]1O[C@H](O[C@]2(CO)O[C@H](CO)[C@@H](O)[C@@H]2O)[C@H](O)[C@@H](O)[C@@H]1O)c1ccccc1,"inconclusive: 8.91 µM [inhibitor, partial curve, poor fit]"
11,CC1=CC(=O)CC(C)(C)C1/C=C/C(C)O[C@@H]1O[C@H](CO)[C@@H](O)[C@H](O)[C@H]1O[C@@H]1OC[C@](O)(CO)[C@H]1O (stereo not given in full),"inconclusive: 17.8 µM [inhibitor, partial curve, poor fit]"
12,COc1cc(/C=C/C(=O)O[C@H]2[C@H](O)[C@@H](CO)O[C@@]2(CO)O[C@H]2O[C@H](CO)[C@@H](O)[C@H](O)[C@H]2O)ccc1O,"inconclusive: 7.94 µM [inhibitor, partial curve, poor fit]"
13,COC(=O)C1=CO[C@@H](O[C@@H]2O[C@H](CO[C@@H]3O[C@H](COC(=O)/C=C/c4cc(OC)c(O)c(OC)c4)[C@@H](O)[C@H](O)[C@H]3O)[C@@H](O)[C@H](O)[C@H]2O)[C@@H]2C(CO)=CC[C@H]12,"inconclusive: 5.62 µM [inhibitor, partial curve, poor fit]"
14,Cc1ccc(-c2cc(C(=O)NCc3ccc(S(N)(=O)=O)cc3)c3ccccc3n2)cc1C,inactive
15,CCOC(=O)c1csc(-n2nc(-c3ccc(F)c(F)c3)c(Cc3ccc(S(N)(=O)=O)cc3)c2N)n1,inactive
16,COc1cc(/C=C/C(=O)OC[C@H]2O[C@@H](OC3CC(C)=C(C(=O)O)C(C)(C)C3)[C@H](O)[C@@H](O)[C@@H]2O)cc(OC)c1O (stereo not given in full),"inconclusive: 12.6 µM [inhibitor, single point]"
17,C[C@@H]1O[C@@H](O[C@H]2[C@@H]3C=CO[C@@H](O[C@@H]4O[C@H](CO)[C@@H](O)[C@H](O)[C@H]4O)[C@@H]3[C@@]3(CO)O[C@@H]23)[C@H](O)[C@H](OC(=O)/C=C/c2ccc(O)c(O)c2)[C@H]1O,"inconclusive: 5.01 µM [inhibitor, partial curve]"
18,C=C1[C@H](OC(C)=O)[C@H]2[C@@H](OC(C)=O)[C@](C)(OC(C)=O)C[C@]2(OC(C)=O)C(=O)[C@H](C)/C=C/C(C)(C)C(=O)[C@H](OC(=O)C(C)CC)[C@H]1OC(C)=O (stereo not given in full),inactive
19,C/C=C(\C)C(=O)OC1C(C)C2(O)C3C=C(C)C(=O)C3CC(CO)=CC2C2C(C)(C)C12OC(C)=O (stereo not given),inactive
20,COCCN(C)Cc1ccc2nc3sc(C(=O)N(C)C4CCCCC4)cn3c2c1,inactive
